Experimental data published in patent US20220017601A1 (JIANGSU HENGRUI MEDICINE, published 2022).

Columns and labels:
human TGF-β1 [1] = biological target: T1, human TGF-β1 (human, UniProt P01137 part only); test: cell-based or functional assay
murine TGF-β1 = biological target: T2, murine TGF-β1 (murine, UniProt P04202 part only, limits assumed); test: SPR, Biacore T200, fusion protein captured on Protein A chip, 1:1 Langmuir fit
T2 construct: Bought protein; also called murine TGF-β1 (8915LC, CST)

[2] = biological target: T3, human PD-L1 (Sino Biological) (human, UniProt Q9NZQ7 part only, limits assumed); test: as above
T3 construct: Analyte in the Biacore assay; also called human PD-L1 protein

human TGF-β1 [3] = biological target: T1, human TGF-β1; test: as above
T1 sequence (P01137 279-390 limits assumed): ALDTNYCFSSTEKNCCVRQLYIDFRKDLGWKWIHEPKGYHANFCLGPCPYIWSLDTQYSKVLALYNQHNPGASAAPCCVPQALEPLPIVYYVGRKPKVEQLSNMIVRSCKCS

T3 sequence (Q9NZQ7 19-239 limits assumed): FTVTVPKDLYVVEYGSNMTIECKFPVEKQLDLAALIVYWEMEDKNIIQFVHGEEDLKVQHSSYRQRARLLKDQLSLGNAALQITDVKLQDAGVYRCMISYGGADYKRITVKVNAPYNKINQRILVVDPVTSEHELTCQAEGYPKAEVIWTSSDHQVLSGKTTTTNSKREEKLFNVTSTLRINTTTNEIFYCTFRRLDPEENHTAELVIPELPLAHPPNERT
Chain of murine TGF-β1 (P04202 279-390 limits assumed): as the sequence (P01137 279-390 limits assumed) above, with A75S counted along it

B1: Fusion protein 9 (other)
heavy: QVQLVQSGAEVKKPGASVKVSCKASGYTFTSYWMHWVRQAPGQGLEWMGRIGPNSGFTSYNEKFKNRVTMTRDTSTSTVYMELSSLRSEDTAVYYCARGGSSYDYFDYWGQGTTVTVSSASTKGPSVFPLAPCSRSTSESTAALGCLVKDYFPEPVTVSWNSGALTSGVHTFPAVLQSSGLYSLSSVVTVPSSSLGTKTYTCNVDHKPSNTKVDKRV[human IgG4 Fc with S228P F234A L235A (EU numbers) not shown]AGGGGSGGGGSGGGGSGGGGSGGAVKFPQLCKFCDVRFSTCDNQKSCMSNCSITSICEKPQEVCVAVWRKNDENITLETVCHDPKLPYHDFILEDAASPKCIMKEKKKPGETFFMCSCSSDECNDNIIFSEEYNTSNPD
light: DIVLTQSPASLAVSPGQRATITCRASESVSIHGTHLMHWYQQKPGQPPKLLIYAASNLESGVPARFSGSGSGTDFTLTINPVEAEDTANYYCQQSFEDPLTFGQGTKLEIKRTVAAPSVFIFPPSDEQLKSGTASVVCLLNNFYPREAKVQWKVDNALQSGNSQESVTEQDSKDSTYSLSSTLTLSKADYEKHKVYACEVTHQGLSSPVTKSFNRGEC
notes: Antibody-receptor ECD fusion; also called Ab-(G4S)4G-ECD (20-136); PD-L1/TGF-β trap
B1 was tested, and the “IC50 (read off the curve), RLU of the TGF-β1-induced SMAD3 reporter” value (human TGF-β1 [1]) was ~0.03 nM, the Kd (murine TGF-β1) was 0.0307 nM and the koff (murine TGF-β1) was 0.00133 s⁻¹. For the same binder, the kon (murine TGF-β1) was 4.33e+07 M⁻¹ s⁻¹, the Kd [2] was 0.0631 nM and the koff [2] was 0.000124 s⁻¹. It also gave a kon [2] of 1.97e+06 M⁻¹ s⁻¹, a Kd (human TGF-β1 [3]) of 0.0422 nM and a koff (human TGF-β1 [3]) of 0.000728 s⁻¹. For the same binder, the kon (human TGF-β1 [3]) was 1.73e+07 M⁻¹ s⁻¹.

B2: FP17022 (other)
heavy: EVQLLESGGGLVQPGGSLRLSCAASGFTFSSYIMMWVRQAPGKGLEWVSSIYPSGGITFYADTVKGRFTISRDNSKNTLYLQMNSLRAEDTAVYYCARIKLGTVTTVDYWGQGTLVTVSSASTKGPSVFPLAPSSKSTSGGTAALGCLVKDYFPEPVTVSWNSGALTSGVHTFPAVLQSSGLYSLSSVVTVPSSSLGTQTYICNVNHKPSNTKVDKRV[human IgG1 Fc not shown]GGGGSGGGGSGGGGSGGGGSGIPPHVQKSVNNDMIVTDNNGAVKFPQLCKFCDVRFSTCDNQKSCMSNCSITSICEKPQEVCVAVWRKNDENITLETVCHDPKLPYHDFILEDAASPKCIMKEKKKPGETFFMCSCSSDECNDNIIFSEEYNTSNPD
light: QSALTQPASVSGSPGQSITISCTGTSSDVGGYNYVSWYQQHPGKAPKLMIYDVSNRPSGVSNRFSGSKSGNTASLTISGLQAEDEADYYCSSYTSSSTRVFGTGTKVTVLGQPKANPTVTLFPPSSEELQANKATLVCLISDFYPGAVTVAWKADGSPVKAGVETTKPSKQSNNKYAASSYLSLTPEQWKSHRSYSCQVTHEGSTVEKTVAPTECS
For B2, the “IC50 (read off the curve), RLU of the TGF-β1-induced SMAD3 reporter” value (human TGF-β1 [1]) was ~0.02 nM.

B3: Fusion protein 15 (other)
heavy: QVQLVQSGAEVKKPGASVKVSCKASGYTFTSYWMHWVRQAPGQGLEWMGRIGPNSGFTSYNEKFKNRVTMTRDTSTSTVYMELSSLRSEDTAVYYCARGGSSYDYFDYWGQGTTVTVSSASTKGPSVFPLAPCSRSTSESTAALGCLVKDYFPEPVTVSWNSGALTSGVHTFPAVLQSSGLYSLSSVVTVPSSSLGTKTYTCNVDHKPSNTKVDKRV[human IgG4 Fc with S228P F234A L235A (EU numbers) not shown]AGGGGSGGGGSGGGGSGGGGSGGGGSGVKFPQLCKFCDVRFSTCDNQKSCMSNCSITSICEKPQEVCVAVWRKNDENITLETVCHDPKLPYHDFILEDAASPKCIMKEKKKPGETFFMCSCSSDECNDNIIFSEEYNTSNPD
light: B1 light
notes: Antibody-receptor ECD fusion; also called Ab-(G4S)5G-ECD (22-136); PD-L1/TGF-β trap
In the case of B3, the Kd (murine TGF-β1) is reported as 0.0342 nM, the koff (murine TGF-β1) is reported as 0.00122 s⁻¹ and the kon (murine TGF-β1) is reported as 3.57e+07 M⁻¹ s⁻¹. It also gave a Kd [2] of 0.061 nM, a koff [2] of 0.000124 s⁻¹ and a kon [2] of 2e+06 M⁻¹ s⁻¹. The Kd (human TGF-β1 [3]) was 0.0226 nM, the koff (human TGF-β1 [3]) was 0.000608 s⁻¹ and the kon (human TGF-β1 [3]) was 2.69e+07 M⁻¹ s⁻¹.
